# Test results published in PubChem BioAssay AID1240 (Sanford-Burnham Center for Chemical Genomics, 2008).
# Hit rate of the full screen: of about 50,000 compounds, about 800 (1.6%) showed an effect of 50% or more. The list shows a part of the results.
# Target: Bcl-2-like protein 10 (Homo sapiens) (UniProt Q9HD36)
# Test: TR3 peptide-Bcl-B binding displacers, biochemical primary FP assay, phenotype converters (AID 1240);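 note: 0% = Bcl-B with tracer peptide and DMSO and 100% = tracer peptide lacking Bcl-B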
# Settings: GST-Bcl-B / FITC-TR3 peptide fluorescence polarization; stronger effect = higher value; compound at 3.75 mg/L
# Chain of UniProt Q9HD36 (Q9HD36 whole entry, looked up): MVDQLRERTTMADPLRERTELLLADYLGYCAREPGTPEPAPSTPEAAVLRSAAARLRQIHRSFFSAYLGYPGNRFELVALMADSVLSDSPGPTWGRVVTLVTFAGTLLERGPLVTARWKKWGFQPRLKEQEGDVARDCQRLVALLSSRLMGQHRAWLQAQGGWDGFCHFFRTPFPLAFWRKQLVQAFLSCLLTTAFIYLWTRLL
row,Structure (SMILES),displacement [%]
1,Cc1cc(Nc2cccc(C(=O)O)c2)n2ncnc2n1,13.6
2,COc1ccc(C2CC(C(F)(F)F)n3nc(C(=O)Nc4cccc(O)c4)c(Cl)c3N2)cc1OC (centres undefined),1.6
3,CC(C)C(=O)Nc1ccc(C(=O)Nc2ccccc2C(=O)O)cc1,13.8
4,O=C1C2CC=C(Cl)CC2C(=O)N1CCc1c[nH]c2ccccc12 (centres undefined),-1.8
5,Cc1c(CCNC(=O)c2ccccc2F)c2ccccc2n1Cc1ccccc1,4.4
6,COC(=O)CNC(=O)CN(c1ccc(C)cc1C)S(=O)(=O)c1ccccc1,-9.8
7,O=C(Nc1ccc2oc(-c3ccccc3)nc2c1)c1ccc(-c2ccc([N+](=O)[O-])cc2)o1,22.1
8,Cc1ccnc(-n2c(=O)c3cc4c(=O)n(-c5cc(C)ccn5)c(=O)c4cc3c2=O)c1,-4.6
9,CC(C)OC(=O)C(C(=O)C(F)(F)F)c1cc(NS(=O)(=O)c2ccc(F)cc2)ccc1O (centres undefined),4.7
10,COc1cc(/C=C2\SC(=Nc3ccc(O)cc3)NC2=O)ccc1O,-47.5
11,Cc1cc(/C=N\NC(=O)c2ccco2)c(C)n1-c1cccc(Cl)c1,-17.5
12,COC(=O)C1=C(C)NC(=O)/C1=C\c1ccc(Br)cc1,-0.3
13,Cc1ccccc1-n1c(O)c(C=Nc2ccccc2F)c(=O)[nH]c1=O,-4.7
14,CCOc1ccc(C(=O)Nc2ccc(I)cc2Cl)cc1Cl,-9.9
15,CCn1nnnc1-c1ccc(OC)c(S(=O)(=O)Nc2ccccc2OC)c1,11.2
16,NC(=O)c1c(NC(=O)/C=C/c2ccccc2Cl)sc2c1CCCC2,41
17,CCc1cccc(C)c1NC(=O)c1c(-c2ccccc2)noc1C,-2.1
18,CCOc1ccc2nc(SCC)[nH]c2c1,-5.9
19,COc1ccc(S(=O)(=O)N(CC(=O)N2CCCCCC2)c2cc(C)cc(C)c2)cc1OC,-9.7
20,O=C1NN(c2ccc(F)cc2)C(=O)/C1=C\c1ccc(-c2cccc(C(=O)O)c2)o1,29.6
21,Nc1nnnn1CC(=O)N/N=C/c1ccc(Cl)cc1,9.1
22,CC1=C(C(=O)OCc2ccc3c(c2)OCO3)C(c2cccc([N+](=O)[O-])c2)NC(=O)N1 (centres undefined),-0.1
23,COC(=O)c1c(NC(=O)c2ccc([N+](=O)[O-])c(C)c2)sc2c1CCCCCC2,-5.3

row,Structure (SMILES),displacement [%]
1,CCOc1ccc2nc(SCC(=O)NCCc3ccccc3)sc2c1,-6.4
2,Cc1ccc2c(c1)C1(c3ccccc3)Nc3ccc(C)cc3C1(c1ccccc1)N2 (centres undefined),12.8
3,Cc1cccc(C(=O)Nc2cc(C(N)=O)cc(C(N)=O)c2)c1,15.8
4,CCOc1ccccc1NC(=O)/C=C/c1ccc(Cl)cc1,11.4
5,Cc1noc(NS(=O)(=O)c2ccc(NC(=O)CCCOc3ccccc3)cc2)c1C,3.7
6,CC(=O)Nc1nc2n(n1)C(=O)CC(c1ccccc1)=N2,-8.4
7,COc1ccc(CN2CCN(C(=O)c3cccc(Cl)c3)CC2)c(OC)c1,-11.1
8,CC(=O)NC(C(Cl)(Cl)Cl)S(=O)(=O)c1ccccc1 (centres undefined),3
9,Cc1ccc(S(=O)(=O)Oc2ccc(Br)cc2/C=C2\SC(=S)NC2=O)cc1,-30.6
10,CCc1ccc(/C=N/n2cnnc2)cc1,14.6
11,O=C(Nc1ccc(NC(=O)c2ccc(Cl)cc2Cl)cc1)c1ccccc1F,-0.9
12,Cc1ccc(NS(=O)(=O)c2ccc([N+](=O)[O-])cc2)cc1,15.1
13,O=C(NCCCNc1ccc([N+](=O)[O-])cc1)c1cc2ccccc2o1,4.8
14,CC(C)(C)c1ccc(/C=N/N=C2\NC(=O)C(CC(=O)O)S2)cc1 (centres undefined),8.5
15,CCOc1ccc(S(=O)(=O)Nc2c(C)cc(C)cc2C)cc1,7.4
16,CCOc1cc(C=O)ccc1OCC(N)=O,10.8
17,CCN(CC)CCN1C(=O)C(O)=C(C(=O)/C=C/c2ccccc2)C1c1cccc(F)c1 (centres undefined),1.1
18,COc1ccc(S(=O)(=O)Nc2cccc3ccccc23)cc1Br,-4.7
19,CC(=O)Nc1cc(-c2ccc(Cl)cc2)nn1Cc1ccc(Cl)cc1,1.2
20,Cc1ccc(S(=O)(=O)NCCNC(=O)Nc2cccnc2)cc1,14.6
21,O=c1cc(-c2ccccc2)nc(N2CCOCC2)[nH]1,-1.5
22,CCOC(=O)C1=NNC2C(=O)N(c3ccccc3C)C(=O)C12 (centres undefined),1.1
23,CC(Nc1ccc(Br)cc1)C(=O)N/N=C/c1ccc(O)cc1O (centres undefined),-18.1

row,Structure (SMILES),displacement [%]
1,Cc1cccc(C)c1NC(=O)c1ccc([N+](=O)[O-])cc1Cl,4.7
2,COc1cc(C=C2C(=O)NC(=O)NC2=O)cc(Cl)c1OC(C)C,7.5
3,COc1ccc(C2/C(=C(/O)c3ccccc3)C(=O)C(=O)N2c2cccc(Br)c2)cc1 (centres undefined),-1.1
4,Cc1ccc(C(=O)Nc2ccc(OCc3ccccc3)cc2)cc1[N+](=O)[O-],-1.1
5,COC(=O)c1c(NC(=O)c2ccc(OC)cc2)sc2c1CCC2,29.6
6,COC(=O)c1ccc(N/C=C\C(=O)c2ccc3c(c2)OCO3)cc1,23.7
7,O=C(Nc1ccc(NC(=O)c2ccc(-c3ccc(Br)cc3)o2)cc1)c1ccco1,10.5
8,Cc1c(C(=O)OC(C)C)sc(NC(=O)C(F)(F)F)c1C(=O)OC(C)C,0.1
9,Cc1ccc(Sc2ccc(/C=c3\sc4nc5ccccc5n4c3=O)o2)cc1,86.8
10,O=C(c1ccccc1Cl)N1CCc2ccccc2C1,17.7
11,CCCCN(C(=S)SC)C1CCS(=O)(=O)C1 (centres undefined),3.2
12,O=C(Nc1ccc(I)cc1Cl)c1ccc(Cl)cc1Cl,-9.7
13,CN(C)c1ccc(CC2(CC(=O)c3ccccc3)C(=O)c3ccccc3C2=O)cc1,1.8
14,O=C(Nc1ccc(S(=O)(=O)N2CCOCC2)cc1)c1cccs1,-6
15,COC(=O)c1c(NC(=O)/C=C/C(=O)O)sc2c1CCC(C(C)(C)C)C2 (centres undefined),5.1
16,Cc1cccc(N2C(=O)C3C4C=CC(C4=C4C5CC6CC(C5)CC4C6)C3C2=O)c1 (centres undefined),-9
17,CCCOc1ccc(C2=NNC(=O)CC2)cc1,3.6
18,NC(=O)COc1ccc(/C=N/NS(=O)(=O)c2ccccc2)cc1,0.2
19,CCOC(=O)c1c(N)sc(C(=O)Nc2cccc(OC)c2)c1C,14.1
20,O=C(COc1cc2oc(=O)c3c(c2cc1Cl)CCC3)c1ccc(Cl)cc1,3.8
21,NNC(=O)C1C(=O)NCC1c1ccccc1 (centres undefined),1.8
22,O=C(NC(=S)Nc1cccc(NC(=O)c2ccccc2Cl)c1)c1ccco1,-1.3
23,NNC(=O)c1cc2ccccc2cc1NS(=O)(=O)c1ccccc1,-22
